# The BET-seq Pho4 binding data (Le et al. 2018)
# The list shows a part of the results. These are noisy estimates, calculated here from bound and input reads.
# Molecular target: T1, Pho4 (S. cerevisiae) (UniProt P07270)
# T1 sequence: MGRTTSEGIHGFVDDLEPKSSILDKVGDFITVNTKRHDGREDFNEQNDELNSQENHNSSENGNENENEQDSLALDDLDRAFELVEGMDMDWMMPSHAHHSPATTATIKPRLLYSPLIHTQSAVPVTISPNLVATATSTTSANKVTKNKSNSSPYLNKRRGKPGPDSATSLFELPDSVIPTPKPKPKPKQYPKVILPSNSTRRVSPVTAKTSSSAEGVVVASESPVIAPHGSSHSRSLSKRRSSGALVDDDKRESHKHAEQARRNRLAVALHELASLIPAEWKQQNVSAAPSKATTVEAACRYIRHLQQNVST
# Assay: relative binding free energy (BET-seq); higher = weaker binding
# Conditions: reference: library average
row,Sequence,relative binding free energy [kcal/mol]
1,ATCGTCACGTGGGGAA,0
2,GGTTTCACGTGGCTTG,0.26
3,TCTTGCACGTGTGAGG,0.15
4,GCCTGCACGTGGGGGA,-0.16
5,TTTCGCACGTGATTGT,0.29
6,GGAGCCACGTGTGGGA,0.16
7,GTGTACACGTGATGAG,0.24
8,TTGGCCACGTGGTATA,-0.13
9,AGAAACACGTGGGATA,0.1
10,CTGAGCACGTGGTTTG,0.03
11,GGTTTCACGTGTGCAA,0.3
12,GTATGCACGTGTGGGA,0.1
13,GTTTACACGTGTAAGG,0.28
14,GTGGTCACGTGGCTGG,0.15
15,TGTATCACGTGAAAGT,0.38
16,CTGCTCACGTGATTTT,0.32
17,GGTTTCACGTGTACGT,0.34
18,CTGGGCACGTGATGTA,-0.04
19,CGGCGCACGTGGTCGG,-0.16
20,TGGAGCACGTGTGATG,0.02
21,TGTAGCACGTGAATAT,0.34
22,GTGGGCACGTGTATCG,0.01
23,GTGAACACGTGGTAGC,0.1
24,ACAGTCACGTGTGAGG,0.28
25,GCTAGCACGTGAGAGG,0.15

row,Sequence,relative binding free energy [kcal/mol]
1,TGTATCACGTGCATAA,0.28
2,GTCTACACGTGGGGGG,0
3,TGTAGCACGTGCGCGG,-0.33
4,TGATTCACGTGGCAGT,0.15
5,TTGGGCACGTGGCATA,-0.29
6,TTGTACACGTGCAGTG,0.15
7,TTTATCACGTGTCTTA,0.17
8,ATCTTCACGTGATGTA,0.19
9,ATTGGCACGTGGACAG,-0.14
10,AATTTCACGTGTGTGA,0.31
11,TTATTCACGTGAATGT,0.24
12,ATGTGCACGTGATTCT,0.11
13,GTCAACACGTGGGGGT,0.06
14,ATATGCACGTGAAAGT,0.03
15,GGGTGCACGTGTGGAA,0.05
16,TAGTTCACGTGCGTAT,0.27
17,GAGAGCACGTGAGAGT,0.2
18,TTCTGCACGTGGACGG,0
19,TGGGGCACGTGTCTAG,-0.08
20,AGGTCCACGTGGGGAA,-0.06
21,AGGAACACGTGGGTTG,-0.06
22,TCTAGCACGTGTGATG,-0.04
23,CTTGACACGTGATAGG,0.05
24,AACGGCACGTGAGGAG,0.12
25,TAGTGCACGTGAAGTG,0.34

row,Sequence,relative binding free energy [kcal/mol]
1,ATTAACACGTGTGTTG,-0.13
2,TCAGGCACGTGGTAAT,-0.01
3,TAAAACACGTGGGTAT,-0.08
4,AATTGCACGTGCAGGT,-0.14
5,GGTAGCACGTGACTGG,0.1
6,GGGAGCACGTGGGGCT,-0.24
7,TCTATCACGTGATATG,0.31
8,GGCGTCACGTGTAATT,0.24
9,TGTTGCACGTGGAGCA,-0.03
10,GGGTCCACGTGTATTA,0.04
11,TGTAACACGTGCTTGG,0.01
12,ATTCTCACGTGGAATT,0.31
13,TATGGCACGTGGTATC,-0.15
14,CGTGGCACGTGATAGT,-0.15
15,TTCATCACGTGTATGT,0.15
16,GGCTACACGTGTGGTG,0.3
17,TTTGGCACGTGTCTGG,-0.11
18,TGTGGCACGTGCTATT,-0.2
19,CTGAGCACGTGTGTTT,0.07
20,AGTTTCACGTGTGGTT,0.34
21,TTTAGCACGTGGAAGG,-0.02
22,AGGTACACGTGATGTT,0.17
23,TATTGCACGTGCGAGG,0.08
24,ATTTACACGTGTAATT,0.15
25,GTAAGCACGTGGGTTA,-0.22

row,Sequence,relative binding free energy [kcal/mol]
1,AGCTACACGTGAGGGG,0.16
2,GTCGTCACGTGTTTGT,0.17
3,TTGGACACGTGGACGG,0.13
4,TGGCGCACGTGCGGTA,-0.16
5,GTTTGCACGTGTTTCA,0.12
6,ATTAGCACGTGCGGGG,-0.2
7,TGGTCCACGTGCGGTT,-0.06
8,ATAGGCACGTGATAGT,-0.04
9,TGTGCCACGTGGTAGT,-0.16
10,TTTAACACGTGGCTAG,-0.07
11,TGGCTCACGTGTGGTC,0.23
12,TAGGGCACGTGGTGAA,-0.17
13,CGTTACACGTGAATGG,0.2
14,TTATTCACGTGGTAGA,0.2
15,GTAGACACGTGCTGTG,-0.01
16,GGCGGCACGTGGGTGG,-0.19
17,GATTACACGTGTATGT,0.2
18,ACTGGCACGTGGGCAG,-0.28
19,CTGAACACGTGGTTGA,0.04
20,TTTTTCACGTGCGGAC,0.3
21,GAGTTCACGTGGCGGT,0.39
22,TACTTCACGTGTTAGG,0.22
23,GAGAACACGTGTTTGT,-0.01
24,GGCCTCACGTGGTGGT,0.05
25,GATAGCACGTGGGCTG,-0.21

row,Sequence,relative binding free energy [kcal/mol]
1,TTAGTCACGTGGGACT,0.05
2,GGATTCACGTGGTGTA,0.44
3,ATTTACACGTGTGTTG,0.11
4,GATCGCACGTGGTTAG,0.12
5,AGAGCCACGTGTTGGG,-0.06
6,TGGACCACGTGAAGGG,0.15
7,GGAGCCACGTGGTGAT,-0.1
8,AGGCACACGTGTTTTG,0.12
9,ATTAACACGTGTGATG,0.13
10,AATGGCACGTGTTATG,-0.05
11,TGTTACACGTGCTAGG,-0.09
12,TCGGCCACGTGAGGTG,0.22
13,TTATGCACGTGCGCGA,-0.07
14,GTAATCACGTGCGTTG,0.04
15,TATTACACGTGGGCTG,0.08
16,GGTCGCACGTGGTTTA,-0.14
17,TATGCCACGTGGTTTT,-0.18
18,GGCGTCACGTGAGTGT,0.24
19,GGCTACACGTGGATGT,0.23
20,GGGCGCACGTGATTTG,0.09
21,GTGCTCACGTGTGGTA,0.15
22,GTGTGCACGTGTCCTG,0.11
23,TCTAGCACGTGTAGGG,-0.11
24,GATTGCACGTGTGGGT,0.16
25,CTCTTCACGTGTTTTA,0.33

row,Sequence,relative binding free energy [kcal/mol]
1,TTAAACACGTGTCAGG,0.06
2,TGTTTCACGTGGTTGA,0.21
3,GTTAACACGTGGCTTA,0.12
4,GATGGCACGTGTTTAA,0.12
5,GCTGGCACGTGTGTGG,0.02
6,TAGAGCACGTGAGTGC,0.25
7,TTTAACACGTGGAAAG,0.16
8,TGGATCACGTGTGTTT,0.25
9,CGTGGCACGTGATGTC,-0.11
10,TGTATCACGTGAGTCA,0.29
11,ATTGCCACGTGGAATT,0.05
12,AGGTGCACGTGTATTG,-0.13
13,TCAATCACGTGGTAGG,0.14
14,TGTTGCACGTGAACTA,0.2
15,TGATCCACGTGAAGTG,0.29
16,TAGTTCACGTGTGATC,0.41
17,CGGGACACGTGTGATT,0.11
18,AGGTACACGTGTGGTC,0.11
19,TTGATCACGTGGTGCG,0.07
20,GTCTTCACGTGAGGTT,0.33
21,GGCGGCACGTGGAGTG,-0.12
